Assay in all cases: glycan array binding signal (z-score within array); higher = stronger binding
What all share (conditions): glycan notation: IUPAC condensed, linker removed

Assay [1] concerns the target Xyl(a1-6)Glc(b1-4)[Xyl(a1-6)]Glc(b1-4)[Xyl(a1-6)]Glc(b1-4)Glc. The procedure, abridged:
(§1)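 Glycan array data were curated from 3228 arrays in the Consortium for Functional Glycomics database and kept only where the protein sequence was available. Glycan names were converted to IUPAC-condensed notation, and columns mapping to the same glycan were averaged. The binding signal is a within-array Z-score, averaged across arrays of the same protein sequence at different concentrations or buffers and across linkers. Negative Z-scores can be read as non-binding.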

Assay [2] has as its target Xyl(b1-2)[Man(a1-3)][Man(a1-6)]Man(b1-4)GlcNAc(b1-4)GlcNAc. A digest of the protocol:
as §1

Assay [3] addresses Xyl(b1-2)[Man(a1-3)][Man(a1-6)]Man(b1-4)GlcNAc(b1-4)[Fuc(a1-3)]GlcNAc. The procedure, abridged:
as §1

Assay [4] concerns the target Xyl(b1-4)Xyl(b1-4)Xyl(b1-4)Xyl(b1-4)Xyl. A digest of the protocol: as §1
The target in assay [5] is Xyl(b1-4)Xyl(b1-4)Xyl(b1-4)Xyl(b1-4)Xyl(b1-4)Xyl. The procedure, abridged: as §1

The other results are listed elsewhere or left out.

B1: CLEC5A (Homo sapiens), Q9NY25 (protein)
chain: MNWHMIISGLIVVVLKVVGMTLFLLYFPQIFNKSNDGFTTTRSYGTVSQIFGSSSPSPNGFITTRSYGTVCPKDWEFYQARCFFLSTSESSWNESRDFCKGKGSTLAIVNTPEKLKFLQDITDAEKYFIGLIYHREEKRWRWINNSVFNGNVTNQNQNFNCATIGLTKTFDAASCDISYRRICEKNAK
In the case of B1, the “glycan array binding signal (z-score)” value in assay [1] is 0.451; in assay [2] it was -0.32; in assay [3] it was -0.32; in assay [4], -0.32; in assay [5], -0.32.

For the origin of these results see the supplement of paper PMC8728848.
